# Laboratory results from the supplement of paper PMC3334620.
# In all, about 33,000 sequences were measured (“E-score (-0.5 to 0.5)”: median about -0.053, highest 2% from about 0.37 on). The list shows a part of the results.
# Target: Hap1 (UniProt P0CE41)
# Experiment: PBM E-score (8-mer binding enrichment) (E-score (-0.5 to 0.5)); higher = stronger / more preferred TF binding; most listed sequences are background and not binding sites
# Details: protein concentration: 200 nM; construct: GST-DNA-binding domain
# Method in brief: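 Yeast transcription factors carrying a GST tag, as full-length proteins or DNA-binding domains, were produced by PURExpress in vitro transcription/translation. About 100-200 nM protein was applied to universal all-10-mer Agilent arrays, double-stranded by primer extension on fresh or once-stripped slides. Bound protein was detected with fluorescent anti-GST, and scans were normalised with masliner. The Universal PBM Analysis Suite gave each ungapped eight-base word, pooled with its reverse complement, an E-score, a modified Wilcoxon-Mann-Whitney statistic.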
# UniProt P0CE41, sequence (P0CE41 whole entry): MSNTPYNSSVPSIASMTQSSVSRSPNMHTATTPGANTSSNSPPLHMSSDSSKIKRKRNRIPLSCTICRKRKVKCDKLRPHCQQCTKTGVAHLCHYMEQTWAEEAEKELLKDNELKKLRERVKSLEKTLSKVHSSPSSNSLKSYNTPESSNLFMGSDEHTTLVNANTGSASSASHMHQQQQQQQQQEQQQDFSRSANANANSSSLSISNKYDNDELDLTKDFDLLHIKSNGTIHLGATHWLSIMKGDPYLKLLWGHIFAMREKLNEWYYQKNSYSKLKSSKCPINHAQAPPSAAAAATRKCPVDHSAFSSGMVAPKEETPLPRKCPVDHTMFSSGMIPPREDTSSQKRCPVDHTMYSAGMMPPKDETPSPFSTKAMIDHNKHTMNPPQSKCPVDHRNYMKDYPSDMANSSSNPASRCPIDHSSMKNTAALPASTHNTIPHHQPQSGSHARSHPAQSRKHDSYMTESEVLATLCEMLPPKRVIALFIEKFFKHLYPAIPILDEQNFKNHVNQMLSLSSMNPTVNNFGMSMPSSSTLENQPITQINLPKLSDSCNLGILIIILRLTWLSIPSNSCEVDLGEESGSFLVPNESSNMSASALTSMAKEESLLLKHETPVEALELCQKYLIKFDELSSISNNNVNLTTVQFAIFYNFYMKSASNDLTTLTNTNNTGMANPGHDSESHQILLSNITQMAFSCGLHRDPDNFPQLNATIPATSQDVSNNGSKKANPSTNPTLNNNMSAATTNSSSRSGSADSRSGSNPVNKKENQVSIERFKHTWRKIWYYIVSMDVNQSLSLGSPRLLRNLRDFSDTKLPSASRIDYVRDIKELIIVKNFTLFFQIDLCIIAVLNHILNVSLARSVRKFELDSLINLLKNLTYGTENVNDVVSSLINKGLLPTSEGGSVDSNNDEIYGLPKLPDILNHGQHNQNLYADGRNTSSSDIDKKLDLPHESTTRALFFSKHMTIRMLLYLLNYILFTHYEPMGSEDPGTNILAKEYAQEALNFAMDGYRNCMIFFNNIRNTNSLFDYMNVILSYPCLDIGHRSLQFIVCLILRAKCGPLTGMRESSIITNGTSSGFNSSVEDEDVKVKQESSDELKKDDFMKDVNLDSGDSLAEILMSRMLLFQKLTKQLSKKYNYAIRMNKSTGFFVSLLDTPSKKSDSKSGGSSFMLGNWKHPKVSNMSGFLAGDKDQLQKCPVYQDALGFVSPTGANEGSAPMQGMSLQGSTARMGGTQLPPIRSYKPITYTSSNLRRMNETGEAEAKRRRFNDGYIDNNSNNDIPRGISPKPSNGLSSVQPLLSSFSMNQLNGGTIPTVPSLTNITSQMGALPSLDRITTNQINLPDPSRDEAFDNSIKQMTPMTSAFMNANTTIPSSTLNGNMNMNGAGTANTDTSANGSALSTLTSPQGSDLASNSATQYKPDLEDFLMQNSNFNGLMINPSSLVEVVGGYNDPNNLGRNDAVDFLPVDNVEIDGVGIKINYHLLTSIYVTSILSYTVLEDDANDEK
row,Sequence,PBM E-score
1,CTAGACAC,-0.138
2,CCTAATTC,-0.0554
3,ATAGGCTA,-0.167
4,AAAAACCG,0.24
5,TGCAGGAA,-0.097
6,CGGTGCAG,0.102
7,ACCTCTAC,-0.049
8,GGACCCCA,-0.0871
9,GAGAGGTA,-0.207
10,CAACTTTC,0.00732
11,CTCTTTGC,-0.193
12,AACAGTTC,-0.0474
13,GTTAACAA,0.0703
14,GTCGCACA,-0.13
15,GCGCCAAA,0.139
16,CCTCGGAC,0.39
17,ACTCGACG,-0.0125
18,GCCTCCGC,0.135
19,CCGATTAA,0.298
20,GCCGTCCC,0.182
21,AATACTTC,-0.104
22,CGTAACCC,0.156
23,ACATCGTC,-0.0858
24,CATTGTCC,0.185
25,AGATGCCT,-0.314

row,Sequence,PBM E-score
1,CAAATCAC,-0.188
2,AGTAAACG,0.00897
3,CGATGAAA,-0.0218
4,CATATGGG,0.0423
5,CACTAACC,0.0126
6,GACACCCC,-0.0457
7,AGGACAGC,-0.0413
8,CGAAGTGA,-0.102
9,ACAAGTGA,-0.141
10,GCGTACTA,-0.116
11,ATGAGCAA,-0.029
12,AAGACGAT,-0.233
13,AGCGCGCC,0.102
14,AGGGACCA,-0.257
15,GCTCCGCC,0.238
16,ACTGTTAG,-0.263
17,AGTCTACC,-0.0192
18,ACGTTCGG,0.289
19,GCACGAGC,-0.188
20,GCATAGAC,-0.19
21,AGAAACAT,-0.103
22,CTCAACTC,-0.0424
23,AGAAACTC,-0.00685
24,CCGGTCAC,0.173
25,CCAACGGA,0.266

row,Sequence,PBM E-score
1,AACGATCT,-0.146
2,ATACAGGA,0.0664
3,GCTACTCA,-0.144
4,AGCGCACT,-0.08
5,ACCATCGG,0.114
6,ACCGCGTA,0.193
7,GGAGCCCC,-0.0916
8,CAAAGAGC,-0.176
9,CTTTTCAA,-0.239
10,ATTCAGCA,-0.238
11,CGCCGAGC,0.364
12,CCTTGTGC,-0.214
13,GAGGTTAC,0.0291
14,TGCCCCAA,-0.176
15,CGTAGACA,-0.0803
16,GAAAATAC,0.105
17,AAATCATG,-0.195
18,CCGTAAAG,0.29
19,GGCGCCCA,-0.0481
20,CTGGTGGA,-0.17
21,GGGGGAAA,0.172
22,CTAAATGC,0.137
23,AAAGGGAA,-0.111
24,AACGAATG,-0.0933
25,CAGTATAC,0.06

row,Sequence,PBM E-score
1,CAAATACG,-0.203
2,CGGGGTTC,0.211
3,AGGTTGCA,-0.0972
4,ATCCGAGG,0.39
5,GATGGTTA,-0.0614
6,CAGACAAG,-0.109
7,AAATCGAA,-0.0885
8,CCAGGAGG,-0.106
9,CAGGCCAG,-0.152
10,CAACAGAA,-0.227
11,ATTAGAAG,-0.0841
12,AATCGATG,-0.153
13,AAAGGTAC,-0.123
14,TCCCCCGA,0.393
15,CATGTCAC,-0.14
16,ATACTGAG,-0.143
17,ATGCGAAG,-0.0416
18,CCAAAATA,-0.0289
19,AACATGCC,0.049
20,CCGCTACA,0.265
21,ATTACCAA,-0.0677
22,GCAAGTCC,0.0571
23,CTCGGGCA,0.321
24,CTTAGTGA,-0.0694
25,AGACCATA,0.0105

row,Sequence,PBM E-score
1,CGAGCCGA,0.191
2,ATGACTCC,0.0346
3,AAGGGCCG,0.23
4,GGTACCCA,-0.168
5,AGAAACCC,0.0915
6,TAATGTAA,-0.129
7,AGCAGCCA,-0.153
8,GACTTGAA,-0.00348
9,CCCTGAAG,-0.166
10,GCTTACAA,-0.179
11,AGCCTCGA,-0.329
12,AAAGGGAT,-0.336
13,AGAAAGCC,-0.0457
14,CGTTCTAC,-0.0529
15,ACCCGCGG,0.33
16,CTCTCCTC,-0.166
17,CAAGAAAA,-0.0212
18,CAATGGAG,-0.188
19,TACCCGCA,0.215
20,AGTCACCG,0.125
21,CGGTGGAC,0.159
22,CCTGGAGA,-0.237
23,GACATGGA,-0.0347
24,GATCGATC,-0.0786
25,CACTCGAG,-0.162

row,Sequence,PBM E-score
1,GATGTGAC,0.133
2,CCTCCTCC,-0.147
3,CAACTACA,-0.12
4,CCCTGGGA,-0.115
5,GCCAGCCA,-0.0457
6,ATGTACCA,-0.0474
7,GTGACCTA,-0.188
8,AAATCCGA,0.457
9,CGTGGTAG,-0.0899
10,CGCTGATC,0.252
11,CCTTGTAC,-0.239
12,CCCCATAC,0.0502
13,AGCTCAGG,-0.184
14,AGTTTTGG,-0.138
15,GGAACCAC,0.0946
16,CATCCAGG,-0.183
17,ATATACTC,0.0148
18,CACTATAA,-0.238
19,AAGCCGGC,0.399
20,AGCGTATA,-0.0432
21,CCAAGGTC,-0.0382
22,GCGGTCTA,0.0807
23,ACGCAGCT,-0.134
24,AGCAATTG,-0.033
25,ATCAAAAT,-0.25

row,Sequence,PBM E-score
1,GGTAGGAA,-0.121
2,AACGTTCA,-0.345
3,AGGGCATC,-0.311
4,CATGCGTA,-0.018
5,CCAAGAAA,-0.108
6,TGCACGCA,-0.106
7,AATACTAA,0.024
8,ATCTGATC,-0.0276
9,AAACAGAC,-0.0457
10,GGTGAATA,0.0285
11,ACGGACTA,0.237
12,CCGTCGCC,0.175
13,CGCTTAAG,0.0296
14,TAACCGAA,0.287
15,CGCAAAAG,-0.00606
16,TATTGCAA,0.127
17,CGTACCTA,-0.104
18,GGAAGCAC,0.00432
19,AGGGGAAT,0.0163
20,CGACTCAC,-0.0909
21,CATATCCC,0.109
22,CTAGAGAA,-0.207
